This passage reports z-score results from PubChem BioAssay AID488969 (Vanderbilt High Throughput Screening Facility, 2010).

Over roughly 110,000 compounds, “z-score” has its median near -0.1; the highest 2% begin near 2. This is one part of the list. Active and inactive are the calls of the source.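 The calls were made as follows: active = z-score in the third read window above 3 or below -3; inactive = the rest.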

In the experiment the target is Metabotropic glutamate receptor 8 (Rattus norvegicus) (UniProt P70579). Briefly: rat mGluR8 modulators via GIRK flux, primary screen, cell-based, thallium flux, HTS (AID 488969). Conditions: HEK293 rat mGluR8, GIRK (G protein-gated inwardly rectifying potassium channel) thallium flux, FluoZin2; at 10 µM; stronger effect = higher value; submaximal glutamate (EC20) added with thallium.
UniProt P70579, sequence (P70579 whole entry, looked up): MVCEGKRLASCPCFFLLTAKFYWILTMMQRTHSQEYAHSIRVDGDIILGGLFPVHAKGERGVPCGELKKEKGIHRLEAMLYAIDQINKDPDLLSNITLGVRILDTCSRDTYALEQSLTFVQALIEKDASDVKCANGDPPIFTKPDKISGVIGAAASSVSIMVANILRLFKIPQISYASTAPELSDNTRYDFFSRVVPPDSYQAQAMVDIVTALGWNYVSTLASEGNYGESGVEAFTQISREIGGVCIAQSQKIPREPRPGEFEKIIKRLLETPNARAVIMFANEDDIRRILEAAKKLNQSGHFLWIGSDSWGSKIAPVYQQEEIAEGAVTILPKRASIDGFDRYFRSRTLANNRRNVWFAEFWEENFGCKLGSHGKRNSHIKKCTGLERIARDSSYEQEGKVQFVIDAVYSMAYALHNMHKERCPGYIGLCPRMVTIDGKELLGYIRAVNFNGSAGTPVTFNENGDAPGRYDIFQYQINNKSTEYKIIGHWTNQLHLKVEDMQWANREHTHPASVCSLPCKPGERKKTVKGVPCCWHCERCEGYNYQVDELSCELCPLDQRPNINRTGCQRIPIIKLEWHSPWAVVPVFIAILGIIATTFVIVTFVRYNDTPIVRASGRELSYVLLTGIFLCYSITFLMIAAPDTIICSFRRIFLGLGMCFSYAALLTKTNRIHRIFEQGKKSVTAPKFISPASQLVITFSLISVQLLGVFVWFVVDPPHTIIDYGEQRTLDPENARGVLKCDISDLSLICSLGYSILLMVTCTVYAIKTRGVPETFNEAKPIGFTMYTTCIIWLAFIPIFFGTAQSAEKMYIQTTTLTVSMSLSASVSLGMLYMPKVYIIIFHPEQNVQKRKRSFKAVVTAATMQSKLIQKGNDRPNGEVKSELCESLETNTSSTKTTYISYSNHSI
Take `CC(C)CCNC(=O)CO/N=C/c1ccccc1OC(F)F`: the z-score is -0.572.

As to `C=CCN=C(NC#N)SCC(=O)NCc1ccccc1`, the z-score stood at 0.0139.

In turn, `C#CCSc1nsc(SCC#C)c1C#N` displayed a z-score of -0.292.

In turn, `CC(=O)Nc1cccc(-c2csc(Nc3cccc(C)n3)n2)c1` showed a z-score of -0.0514.

`CN=c1sc2ccccc2n1CC(O)COc1ccccc1` (configuration not stated) showed a z-score of 0.639.

As for `CC1CC(C)(C)CC2(C1)NC(=O)N(CC(=O)NCC(c1ccco1)N1CCCCC1)C2=O` (configuration not stated), the z-score came out at 0.771.

Molecule `O=C(Cc1cccc2ccccc12)NN1C(=O)C2C(C1=O)C1C=CC2C12CC2` (configuration not stated) returned a z-score of 0.0603.

For `CCn1nnnc1SCC(=O)NC1CCCC1`, the z-score is -0.0025.

Take `O=C1SC(SCc2ccccc2)=N/C1=C\c1ccco1`: the z-score was -0.178.

The molecule `CC(C)c1nc2sc3c(NCc4ccco4)ncnc3c2c2c1COC(C)(C)C2` came in with a z-score of 0.296.

In turn, `O=C(CSc1nnc(C2COc3ccccc3O2)o1)N1CCCc2ccccc21` (configuration not stated) came in with a z-score of -0.448.

For `CCC(OC(=O)c1cc2sccc2n1C)C(=O)NCc1ccco1` (configuration not stated), the z-score is -0.11.

For `O=S(=O)(Nc1nc2ccccc2nc1Nc1cccc(S(=O)(=O)N2CCCCC2)c1)c1ccccc1`, the z-score was -1.71.

`COc1ccc(Cn2nnnc2C(c2cc3cc(C)ccc3[nH]c2=O)N2CCOCC2)cc1` (configuration not stated) showed a z-score of -0.114.

Regarding `CCOC(=O)C1=C(C)Nc2sc(C(=O)c3ccc(Br)cc3)c(N)c2C1c1ccc(C(=O)OC)cc1` (configuration not stated), the z-score was -0.179.

In turn, `CCCCOc1ccccc1Cn1c(=O)oc2ccc(C)cc21` gave a z-score of 0.822.

In turn, `O=C(/C=C/c1ccc(Cl)c([N+](=O)[O-])c1)Nc1ccc(N2CCCC2)cc1` came in with a z-score of -0.409.

`O=C(CN1C(=O)NC(Cc2c[nH]c3ccccc23)C1=O)Nc1cccc(S(=O)(=O)N2CCCCCC2)c1` (configuration not stated) gave a z-score of 0.128.

In turn, `CC1CCN(C(=O)COC(=O)[C@H](C)NS(=O)(=O)/C=C/c2ccccc2)CC1` registered a z-score of -0.222.

As to `Cc1ccc([N+](=O)[O-])cc1NC(=S)NC(=O)C(C)(C)C`, the z-score was determined as 0.72.

In the case of `CC(C)CN(CC(C)C)C(=O)CC(=O)NC(=O)c1ccc(Cl)cc1`, the z-score came out at 0.196.

Molecule `Cc1nc(NC(=O)c2ccccc2)nc2cc3c(cc12)OCO3` came in with a z-score of -0.307.

Molecule `CC(C)(C)c1cc(C(F)(F)F)c(C#N)c(=O)[nH]1` gave a z-score of -0.922.

As for `O=C(Nc1cnccn1)c1csc2ccccc12`, the z-score was 0.0259.

Regarding `S=c1nc(-c2ccco2)[nH][nH]1`, the z-score was -0.896.

In turn, `COC(=O)c1ccc(C(=O)OC)c(NC(=O)COC(=O)C23CC4CC(CC(O)(C4)C2)C3)c1` yielded a z-score of -1.04.

Turning to `COc1ccc(-n2nnnc2SCC(=O)N2C(C)CCCC2C)c(OC)c1` (configuration not stated), the z-score was -0.0118.

`COCCNC(=O)NC1(C(F)(F)F)Oc2ccc(Cl)cc2O1` (configuration not stated) registered a z-score of -0.257.

Regarding `C/C(Cl)=C\Cn1c(NCCCn2ccnc2)nc2c1c(=O)n(C)c(=O)n2C`, the z-score was -0.632.

As to `COc1ccccc1-c1nc(C#N)c(N2CCN(C(c3ccccc3)c3ccccc3)CC2)o1`, the z-score was -0.485.

`COCc1nnc(NC(=O)c2ccc(S(=O)(=O)N3CCCCCC3)cc2)o1`: the z-score was -0.164.

`CCCCN(C)C(=O)c1cn(C)c2ccc(S(=O)(=O)N(C)C)cc2c1=O`: the z-score is -0.337.

`N#Cc1cccc(NC(=O)CSc2ccccc2)c1` returned a z-score of 0.496.

Regarding `Cc1ncc([N+](=O)[O-])n1Cc1cccc2ccccc12`, the z-score was determined as 0.0129.

With `CCOC(=O)CC1C(=O)NCCN1C(=O)Nc1ccc(Cl)cc1` (configuration not stated), the z-score came to 0.0695.

Regarding `C=CCn1c(SCCOC)nc2c1c(=O)[nH]c(=O)n2C`, the z-score was -0.444.

`Cc1nnc(SCc2ccc(C(=O)c3ccc(Cl)cc3)o2)n1-c1ccccc1` had a z-score of -0.404.

The molecule `O=C(NC1CCCCC1)n1c(=O)oc2ccccc21` registered a z-score of 0.121.

As to `COc1cccc(-c2nnc(SCc3ccccn3)n2C)c1`, the z-score turned out to be 0.0362.

In turn, `O=C(NCc1ccco1)c1nn2c(C(F)(F)F)cc(-c3cccs3)nc2c1Cl` showed a z-score of -0.682.

As for `O=C(O)CSc1nnc(Cc2ccccc2)n1-c1ccccc1`, the z-score was found to be 0.405.

`Cc1cc(C(=O)CN2CCC(C)CC2)c(C)n1-c1ccc(F)cc1` came in with a z-score of 0.978.

The molecule `CCN(CC)c1ccc(NC(=O)c2ccccc2F)cc1S(=O)(=O)Nc1ccccc1OC` came in with a z-score of 0.0987.

`CSc1nc2ccc(Cl)cc2[nH]1` displayed a z-score of 0.0994.

As for `CC(=O)NC(CCS(C)(=O)=O)C(=O)Nc1ccccc1Cl` (configuration not stated), the z-score is -0.34.

Molecule `Clc1ccc2oc(-c3ccccn3)nc2c1` gave a z-score of -0.361.

The molecule `CCCNC(=O)c1ccc2c(c1)C1C3CCC(C3)C1C(c1ccccc1)N2` (configuration not stated) had a z-score of -0.506.

The molecule `CC(C)(C)S(=O)c1cccs1` (configuration not stated) came in with a z-score of 0.555.

Turning to `C/C(=N\NC(=O)c1nn(C)cc1Br)c1ccc(NC(=O)c2ccncc2)cc1`, the z-score was -0.19.

For the molecule `COC(=O)C1=C(C)N(C(C)C)C(=O)C1(NC(C)=O)C(F)(F)F` (configuration not stated), the z-score is -0.0522.

Molecule `CN(CCc1ccccn1)Cc1ccc(Cl)cc1` returned a z-score of 0.276.

Consider `c1ccc(COc2ccc(OCCCCN3CCCCC3)cc2)cc1`, for which the z-score is 2.79.

Turning to `C=CCNC(=S)NNC(=O)c1cccc2ccccc12`, the z-score worked out at 0.169.

`CCOCCCNC(=O)c1ccccc1Br` had a z-score of -0.0783.

For `O=C(CSc1nc(CCC2CCCC2)nc2ccccc12)NCc1ccc2c(c1)OCO2`, the z-score was active: 8.15.

Molecule `N#C/C(=C\c1ccc([N+](=O)[O-])cc1)C(=O)Nc1ccccc1O` had a z-score of -0.211.

In turn, `O=c1c(C=Nc2ccc(Oc3ccccc3)cc2)c[nH]n1-c1cccc(Cl)n1` showed a z-score of -0.203.

`COc1cc(N=C2C(=O)N3CCCc4cccc2c43)cc(OC)c1` returned a z-score of -0.532.

For `CCCCN1C(=O)Cc2c1nc(N)c1c(N)nc(N(CCC)CCC)c(C#N)c21`, the z-score was -0.15.

With `CCOc1ccccc1NC(=O)COn1nnc2ccc(Cl)cc21`, the z-score was -0.25.

In the case of `CCOC(=O)c1c(C)sc2c1N(C(=O)CCl)c1cc(Cl)ccc1S2`, the z-score was -0.0907.

`COc1ccc(S(=O)(=O)N(C)CC(=O)Nc2cccc(C(C)=O)c2)cc1` yielded a z-score of 0.0743.

Take `CCOC(=O)N1CCC(NC(=O)C2CCN(c3ccc(N4CCOCC4)nn3)CC2)CC1`: the z-score was -0.202.

For `O=C(c1ccc(NC2=NC3CS(=O)(=O)CC3S2)cc1)N1CCN(Cc2ccccc2)CC1` (configuration not stated), the z-score was -0.164.

As to `Nc1nc(-c2ccccc2)cc(C(F)(F)F)n1`, the z-score is -0.0256.

`Oc1ccccc1CN1CCCN(Cc2ccccc2O)C1` had a z-score of -2.

Molecule `N#Cc1nc(-c2ccco2)oc1N1CCN(Cc2ccccc2)CC1` displayed a z-score of -0.995.

For `O=C(CSc1nnc(C2CC2)n1-c1ccccc1)NCCc1ccccc1`, the z-score is -0.088.

In turn, `COc1ccc2nc(SCC(=O)Nc3ccc4c(c3)CCC4)[nH]c2c1` came in with a z-score of 0.226.

The molecule `O=C(C1CCCO1)N1CCc2ccccc21` (configuration not stated) returned a z-score of 0.0175.

For `Cc1ccc(S(=O)(=O)NCCC(c2ccc(F)cc2)c2ccco2)cc1` (configuration not stated), the z-score is -0.25.

As for `O=C(NC(=S)NNS(=O)(=O)c1ccccc1)c1ccc([N+](=O)[O-])cc1`, the z-score is -0.0377.
